Experimental findings from PubChem BioAssay AID1346428 (National Center for Advancing Translational Sciences (NCATS), 2018) are described below.

In all, about 48,000 compounds went through this assay and about 1,200 (2.5%) were called active. Not shown: some 2% with an inconclusive outcome.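 The calls were made as follows: active = activation of at least 60% and not above a set upper limit (about 1 call in 100 departs from these limits); inconclusive = activation of 40% to 60%, or above that upper limit; inactive = activation under 40%.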 Some of the results follow.

Sequence of UniProt O75388 (O75388 whole entry, looked up): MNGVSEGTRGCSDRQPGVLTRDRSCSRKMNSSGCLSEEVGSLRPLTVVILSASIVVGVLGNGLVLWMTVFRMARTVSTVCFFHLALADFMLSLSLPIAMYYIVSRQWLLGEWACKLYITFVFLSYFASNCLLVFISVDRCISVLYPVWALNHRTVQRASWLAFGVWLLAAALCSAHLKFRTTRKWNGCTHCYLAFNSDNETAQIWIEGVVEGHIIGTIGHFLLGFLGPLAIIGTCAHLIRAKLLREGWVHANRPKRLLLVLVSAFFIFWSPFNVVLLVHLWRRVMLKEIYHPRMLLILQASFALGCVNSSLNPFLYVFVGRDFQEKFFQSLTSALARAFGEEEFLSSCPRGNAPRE

The target in this assay is Probable G-protein coupled receptor 32 (Homo sapiens) (UniProt O75388). The experiment in a line: qHTS for Agonists of Human Resolvin D1 Receptor DRV1. Also: 0% is about no effect. As to conditions: CHO-K1 GPR32 beta-arrestin PathHunter luminescence, 90 min; at 76.9 µM; stronger effect = higher value; zero percent set by DMSO-only wells. The procedure, abridged:
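Engineered CHO-K1 line co-expressing GPR32-ProLink and EA-beta-arrestin. Compound treatment lasted 90 min at 37 °C. Luminescence was recorded after 1 h with substrate at ambient temperature, relative to DMSO basal wells.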
On the technique in general: In qHTS, concentration-response curves come from the screen itself.
As to `COc1ccc(CNC(=O)c2cc(C)nc3c2c(C)nn3-c2cccc(Cl)c2C)cc1`, the activation was inactive: -20.2%.
`CC(=O)c1cc2ccccc2s1`: the activation is inactive: -3.7%.
`CC(C)[C@@H]1CC[C@@H](C)CC1=O`: the activation is inactive: 10.3%.
The result for `COc1ccc(C)cc1NC(=O)CC(=O)Nc1ccc2nc3n(c(=O)c2c1)CCCCC3` reads inactive: 29.9%.
`CCOc1ccc(S(=O)(=O)N(C(=O)c2ccncc2)c2ccc3oc(C)c(C(=O)OC)c3c2)cc1`: the activation was inactive: -2.57%.
With `CCOc1ccc(C2=CC(c3cc(Br)ccc3F)n3ncnc3N2)cc1Cl` (stereo not drawn), the activation is inactive: -10.6%.
The result for `CC(C)CSc1oc(-c2ccco2)nc1S(=O)(=O)c1ccc(Br)cc1` reads inactive: -32.3%; that for `CCOc1ccc(-n2c(=O)c3c(C)c(C)sc3n(Cc3cc(=O)n4cc(Cl)ccc4n3)c2=O)cc1`, inactive: -1.3%; that for `CN(C(=O)CSc1nc2ccccc2n1Cc1cccc(C(F)(F)F)c1)c1ccccc1`, inactive: -41.7%.
With `Cc1nn(CC(=O)Nc2cccc(C(F)(F)F)c2)c(=O)c2nn(-c3ccccc3)c(C)c12`, the activation was inactive: -9.99%.
The result for `O=C(COC(=O)c1cc(-c2ccccc2)nc2c(Cl)cccc12)c1ccc(F)cc1` reads inactive: -7.84%; that for `O=C(NCCc1csc(-c2ccc(F)cc2)n1)c1c(F)cccc1Cl`, inactive: 45.4%; that for `CC(C)C(=O)Nc1cccc(C2CN3CCSC3=N2)c1` (stereo not drawn), inactive: -0.533%.
The figure for `Cc1ccc(-c2nc3ccccc3[nH]2)cc1NC(=O)COc1cccc(C)c1C` is inactive: 31.6%.
Turning to `COc1cc(CNc2ccc3[nH]c(=O)[nH]c3c2)cc(Cl)c1OCc1ccccc1F`, the activation was inactive: 35.9%.
The figure for `Cc1ccc(-c2nonc2NC(=O)c2ccco2)cc1C` is inactive: 29.5%.
The figure for `Cc1oc(C)c2c(=O)cc(-c3ccc4c(c3)OCO4)cc(OC(=O)c3ccc(Cl)cc3)c12` is inactive: -9.79%; for `Cc1ccc(-c2nn(CC(=O)Nc3cccc(C(F)(F)F)c3)c(=O)c3ccccc23)cc1` it is inactive: -4.12%.
As to `Cc1ccc(CNC(=O)c2ccc3c(c2)N(Cc2cccc(C)c2)C(=O)CS3)cc1`, the activation was inactive: 17.2%.
For the molecule `COc1ccccc1Cn1c(CNS(=O)(=O)c2cccc([N+](=O)[O-])c2)nc2cccnc21`, the activation was inactive: -16.2%.
The result for `NC(CSCC(=O)O)C(=O)O` (stereo not drawn) reads inactive: -7.75%; that for `CCC(Sc1nc2ccccc2c2nc(CCc3c(C)n[nH]c3C)nn12)C(=O)Nc1ccccc1F` (stereo not drawn), inactive: -10.3%; that for `Cc1cccc(C)c1NC(=O)CSCc1cnn(-c2ccccc2)c1-n1cccc1`, inactive: -9.97%.
The figure for `Cc1ccccc1C(=O)Nc1ccc(C(=O)N2CCCC(N(C)C)c3ccccc32)cc1` (stereo not drawn) is inactive: 3.34%; for `COc1ccc(C)cc1NC(=O)CCn1nc(C)cc1C` it is inactive: -25.7%; for `CCN(CC)C(=O)C1=C(C)Nc2nc3ccccc3n2C1c1cccc(Cl)c1` (stereo not drawn) it is inactive: -4.23%.
The figure for `Cc1ccc(NC(=O)Cn2c(=O)c(CNc3ccccc3)cc3cc4c(cc32)OCCO4)cc1` is inactive: -61.3%.
`COC(=O)c1ccc(NC(=O)CSc2n[nH]c(CC(C)C)n2)cc1`: the activation was inactive: 14.8%.
The figure for `COc1ccc(CNC(=O)c2cc3cccc(OC)c3oc2=O)cc1` is inactive: -4.85%.
The figure for `COc1ccc(Cl)cc1NC(=O)N1CC(=O)Nc2sc3c(c2C1c1ccccc1)CCCC3` (stereo not drawn) is inactive: -35.3%.
Regarding `CCCc1nccn1S(=O)(=O)c1cc(Br)ccc1OC`, the activation was inactive: -8.16%.
With `Cc1ccc(NC(=O)Cn2c(-c3cncs3)nc3ccccc32)cc1Br`, the activation is inactive: -10%.
The figure for `CCN(CC)C(=O)CSc1nc2ccccc2c(=O)n1Cc1ccco1` is inactive: 8.69%; for `Cc1nn(CCCC(=O)Nc2cccc(F)c2)c(=O)c2c1sc1ccccc12` it is inactive: -10.1%; for `COc1cc2c(C(=O)N(C)c3cc(Cl)ccc3OC)cn(CC(C)C)c(=O)c2cc1OC` it is inactive: 0.723%.
`CCN(C(=O)Cn1c(=O)n(CC2CCC(C(=O)NC)CC2)c(=O)c2sccc21)c1ccccc1` (stereo not drawn): the activation was inactive: -5.02%.
The result for `COc1ccc(NC(=O)CN2C(=O)CCc3cc(S(=O)(=O)N4CCOCC4)ccc32)cc1Cl` reads inactive: 19.7%; that for `O=C(Nc1ccccc1)c1cn(-c2ccccc2)nc1-c1ccccc1`, inactive: -18.5%.
The result for `COc1ccccc1NC(=O)CSC1=Nc2ccccc2N=C(c2ccc(F)cc2)C1` reads inactive: -16.6%; that for `Cc1cccc(-n2c3nc(=O)[nH]c(=O)c-3cc3c(C)nn(-c4ccccc4)c32)c1C`, inactive: -0.56%; that for `Cc1ccc(NC(=O)Cc2coc3c(C)c(C)ccc23)cc1Cl`, inactive: 27%.
As for `Cc1ccc(NC(=O)c2ccc3[nH]c(C)cc(=O)c3c2)c(C)c1`, the activation is inactive: -5.07%.
As to `CN(Cc1ccc(C(C)(C)C)cc1)Cc1cccc2ccccc12`, the activation was active: 68.1%.
The figure for `Cc1ccc(CCNC(=O)c2cc(-c3ccc(Cl)cc3)n[nH]2)cc1` is inactive: -1.89%.
The result for `Cc1ccc(Nc2cc(C(=O)NCc3cccs3)c3ccccc3n2)c(C)c1` reads inactive: -8.13%; that for `COc1ccccc1CN1CCN(C2CCN(C(=O)NC(C)C)CC2)C(=O)C1=O`, inactive: -6.51%.
The figure for `COc1ccc(Nc2ncc3c(n2)CCN(C(=O)OC(C)(C)C)C3)cc1` is inactive: 46.7%; for `COc1cc2ccccc2cc1C(=O)Nc1ccc2oc(-c3ccccc3)nc2c1` it is inactive: 5.34%.
Consider `CCOc1ccccc1C(=O)N(Cc1cccs1)c1ccc(Cl)cc1`, for which the activation was inactive: -0.748%.
For `CCc1ccc2c(c1)-c1ccccc1S(=O)(=O)N2CC(=O)N1CCC(C)CC1`, the activation is inactive: -38.7%.
The figure for `NCCCCN` is inactive: -1.09%.
`Cc1cc(O)c(-c2ccnc3cc(-c4ccccc4)nn23)cc1Cl`: the activation was active: 89.7%.
The figure for `Cc1ccccc1CNC(=O)CCC(=O)N1CC2CCCN2c2ccccc21` (stereo not drawn) is inactive: 12.5%; for `COc1ccccc1C(=O)Nc1nc2nc(C)c(Cc3ccccc3)c(=O)n2[nH]1` it is inactive: 1.29%; for `COc1ccccc1CNc1ncnc2c1c(-c1ccccc1)cn2-c1cccc(C)c1` it is inactive: -40.4%.
For the molecule `CC(=O)c1ccc(NC(=O)Cn2ncc3c(C)n(Cc4ccc(F)cc4)c(C)c3c2=O)cc1`, the activation is inactive: -11.4%.
Regarding `CC1CCN(S(=O)(=O)c2ccc3c(c2)N(CC(=O)N2CCN(c4ccccc4)CC2)C(=O)CO3)CC1`, the activation is inactive: -5.41%.
The result for `COc1cccc(Cn2c(CNS(=O)(=O)c3ccc4c(c3)CCCC4)nc3cccnc32)c1` reads inactive: -22.6%.
Regarding `O=C1C(=O)N(C2CCN(C(=O)c3ccc(Cl)cc3)CC2)CCN1Cc1ccc(F)cc1`, the activation is inactive: 11.4%.
The figure for `CCN(CC)CCCNC(=O)c1ccc2nc(N3CCCCC3)sc2c1` is inactive: -6.72%.
The result for `CCNC(=O)c1ccc2nc(CCc3ccccc3)oc2c1` reads inactive: -10.6%.
The result for `COc1ccc(CCNC(=O)c2cc(C)nc3c2c(C)nn3-c2ccc(C)cc2)cc1OC` reads inactive: -20%; that for `Cc1cc(Nc2ccccc2C)nc(-n2nc(C)cc2C)n1`, inactive: -17.6%; that for `O=C(CN1CCSc2ccccc21)NCc1ccccc1F`, inactive: -7.94%.
Consider `CCOc1ccccc1C(=O)N(Cc1cc(OC)c(OC)c(OC)c1)C1CCS(=O)(=O)C1` (stereo not drawn), for which the activation was inactive: -5.24%.
The figure for `CCCN(C(=O)c1cn(C)c(=O)c2ccccc12)c1ccccc1C` is inactive: 4.04%.
`COc1ccc2nc(N(Cc3cccnc3)C(=O)C3COc4ccccc4O3)sc2c1` (stereo not drawn): the activation was inactive: -18.6%.
The figure for `CCOc1ccccc1CN1CCc2nc(N3CCN(c4ccccc4F)CC3)ncc2C1` is inactive: -59.9%.
For `CCCOc1ccc(CN(C(=O)c2cc(=O)c3ccc(C)cc3o2)C2CCS(=O)(=O)C2)cc1` (stereo not drawn), the activation was inactive: -9.82%.
The figure for `COc1ccc(N2CCN(S(=O)(=O)CCNC(=O)C3CC(=O)N(c4ccccc4)C3)CC2)cc1` (stereo not drawn) is inactive: -5.63%.
The result for `CN(C)CC[C@@H](c1ccc(Br)cc1)c1ccccn1` reads inactive: 4.91%; that for `COc1cccc(C(=O)CC2(O)C(=O)Nc3ccc(Cl)cc32)c1` (stereo not drawn), inactive: -32.4%; that for `COc1cc(C)ccc1OCCSc1nc(-c2cccc(C)c2)nc2cc(=O)[nH]n12`, inactive: -35.5%.
The figure for `Cc1nc(CC(=O)Nc2cc(Cl)ccc2C)cs1` is inactive: -12.8%; for `COc1ccc(-n2nnc(-c3nc(-c4cccs4)no3)c2N)cc1OC` it is inactive: 11.3%.
For `COC(=O)c1c(NC(=O)c2nc(SCc3cccc(C)c3)ncc2Cl)sc2c1CCCC2`, the activation is inactive: -16.2%.
The figure for `CC(=O)N1CCCC1c1nc2ccccc2n1Cc1cccc(Cl)c1` (stereo not drawn) is inactive: -20.3%; for `CCc1ccc(CNC(=O)COc2cc(=O)n(CC)c3ccccc23)cc1` it is active: 117%.
Turning to `COc1cc(NC(=O)CC(c2ccc(C)cc2)N2Cc3ccccc3C2=O)cc(OC)c1` (stereo not drawn), the activation was inactive: 17.3%.
The result for `Cc1ccc(-c2noc(-c3ccc(NCc4ccco4)c([N+](=O)[O-])c3)n2)cc1` reads inactive: 10.3%.
The result for `C=C(C)C1CC=C(C(=O)O)CC1` (stereo not drawn) reads inactive: -6.75%; that for `COc1cc(C2CC(=O)c3c([nH]c(C(=O)OCC4CCCCC4)c3C)C2)cc(OC)c1OC` (stereo not drawn), inactive: 1.66%; that for `COc1ccc(-c2nc(C)c(CCNC(=O)C(=O)Nc3ccccc3C#N)s2)cc1OC`, inactive: -1.67%.
As for `CC1=C(c2ccc(F)cc2)S(=O)(=O)NC1=NCc1ccccc1F`, the activation is inactive: 14.5%.
The figure for `CCc1nn2c(=O)cc(COC(=O)c3ccc(NC(=O)c4cccs4)cc3)nc2s1` is inactive: -17.1%; for `COc1ccccc1C(=O)Nc1nc2nc(-c3ccccc3)cc(=O)n2[nH]1` it is inactive: 3.63%.
The figure for `Cc1ccccc1NS(=O)(=O)c1ccc2[nH]cc(C(=O)NC(C)c3ccccc3)c(=O)c2c1` (stereo not drawn) is inactive: -25.5%.
With `COc1ccc(Nc2nnc(-c3cc4c(ccc5ccccc54)oc3=O)s2)cc1`, the activation is inactive: 7.73%.
